Results: paper PMC3510517
Where two headings read alike, the source gives them in different places. No constants are given. Whether binding was seen depends on the method and setting. Binding seen in cells or lysates may run through a third protein. Some binding calls cover weakened binding; strength is not graded here. For some of these results: Tags and fused reporters may be left off the sequences shown.

Amino acid sequences for entries named in this document (tags omitted).
UniProt O76216: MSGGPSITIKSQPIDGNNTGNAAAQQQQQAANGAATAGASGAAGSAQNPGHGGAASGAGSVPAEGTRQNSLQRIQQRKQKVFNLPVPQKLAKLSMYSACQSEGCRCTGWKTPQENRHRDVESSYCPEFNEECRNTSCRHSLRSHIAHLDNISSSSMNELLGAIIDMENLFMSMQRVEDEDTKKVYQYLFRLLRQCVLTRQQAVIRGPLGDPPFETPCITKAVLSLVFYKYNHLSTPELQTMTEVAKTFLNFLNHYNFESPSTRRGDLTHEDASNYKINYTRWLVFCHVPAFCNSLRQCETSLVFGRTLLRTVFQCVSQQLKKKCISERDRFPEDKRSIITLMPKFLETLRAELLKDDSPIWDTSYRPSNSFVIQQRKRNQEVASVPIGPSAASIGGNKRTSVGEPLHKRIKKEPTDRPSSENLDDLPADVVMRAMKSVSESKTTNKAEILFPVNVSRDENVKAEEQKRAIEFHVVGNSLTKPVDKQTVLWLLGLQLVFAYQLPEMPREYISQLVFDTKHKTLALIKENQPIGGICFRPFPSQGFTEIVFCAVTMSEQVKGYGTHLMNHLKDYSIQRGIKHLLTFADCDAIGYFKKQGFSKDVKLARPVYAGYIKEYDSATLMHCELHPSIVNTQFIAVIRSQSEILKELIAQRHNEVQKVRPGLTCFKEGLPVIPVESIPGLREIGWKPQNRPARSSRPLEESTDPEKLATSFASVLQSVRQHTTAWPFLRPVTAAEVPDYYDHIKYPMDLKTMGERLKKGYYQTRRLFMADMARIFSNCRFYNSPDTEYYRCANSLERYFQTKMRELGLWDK

Legend:
[1] = target: T1, Nonstop (Drosophila (endogenous in embryos)) (UniProt Q9VVR1); experiment: co-IP; endogenous proteins from nuclear extract of Drosophila embryos; extract treated with DNase I and RNase before immunoprecipitation; affinity-purified rabbit antibodies, preimmune serum or IgG as control; western blot
T1 sequence: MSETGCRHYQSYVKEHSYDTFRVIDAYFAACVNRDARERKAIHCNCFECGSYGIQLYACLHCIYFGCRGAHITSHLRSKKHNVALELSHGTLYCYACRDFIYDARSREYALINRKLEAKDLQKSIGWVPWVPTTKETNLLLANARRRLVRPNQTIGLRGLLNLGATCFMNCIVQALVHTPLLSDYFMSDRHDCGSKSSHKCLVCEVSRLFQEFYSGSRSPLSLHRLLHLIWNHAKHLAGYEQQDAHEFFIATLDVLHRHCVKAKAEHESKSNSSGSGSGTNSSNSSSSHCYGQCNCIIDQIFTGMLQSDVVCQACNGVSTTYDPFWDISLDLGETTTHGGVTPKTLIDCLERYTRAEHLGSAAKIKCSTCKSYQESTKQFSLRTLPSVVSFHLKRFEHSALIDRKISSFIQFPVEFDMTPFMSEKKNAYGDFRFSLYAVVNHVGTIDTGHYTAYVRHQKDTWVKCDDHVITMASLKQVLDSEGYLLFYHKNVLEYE

[2] = target: T2, Sgf11 (Drosophila (endogenous in embryos)) (UniProt Q9VVR6); experiment: as above
T2 sequence: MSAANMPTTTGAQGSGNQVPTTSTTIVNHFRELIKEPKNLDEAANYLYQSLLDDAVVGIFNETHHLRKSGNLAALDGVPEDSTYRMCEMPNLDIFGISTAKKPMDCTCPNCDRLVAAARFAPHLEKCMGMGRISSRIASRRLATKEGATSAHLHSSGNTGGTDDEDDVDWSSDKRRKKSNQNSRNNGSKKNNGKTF

[3] = target: T2, Sgf11 (Drosophila (endogenous in embryos)); experiment: co-IP; low molecular weight Superose 6 fractions 28-31 of Drosophila embryonic nuclear extract (treated with DNase I and RNase); antibodies against Sgf11, Nonstop and ENY2 or preimmune serum; western blot
[4] = target: T2, Sgf11 (Drosophila (endogenous in embryos)); experiment: co-IP; endogenous proteins from nuclear extract of Drosophila embryos; extract treated with DNase I and RNase before immunoprecipitation; affinity-purified rabbit antibodies, preimmune serum or IgG as control; western blot; remark: listed apart in the source
[5] = target: T3, FLAG-tagged Sgf11 (Drosophila) (UniProt Q9VVR6); experiment: co-IP; FLAG-tagged Sgf11 co-expressed with HA-tagged Cbp80 or HA-tagged Cbp20 in transiently transfected S2 cells; immunoprecipitation with anti-FLAG, anti-HA or IgG; western blot with anti-FLAG or anti-HA
T3 sequence: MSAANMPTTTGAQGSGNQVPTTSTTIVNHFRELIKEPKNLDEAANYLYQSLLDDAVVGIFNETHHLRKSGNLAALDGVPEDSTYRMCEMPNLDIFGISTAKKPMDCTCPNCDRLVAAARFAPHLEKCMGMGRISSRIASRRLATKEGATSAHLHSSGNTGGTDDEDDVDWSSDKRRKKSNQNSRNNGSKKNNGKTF

[6] = target: T4, HA-tagged Cbp80 (Drosophila) (UniProt Q7K4N3); experiment: as above
T4 sequence: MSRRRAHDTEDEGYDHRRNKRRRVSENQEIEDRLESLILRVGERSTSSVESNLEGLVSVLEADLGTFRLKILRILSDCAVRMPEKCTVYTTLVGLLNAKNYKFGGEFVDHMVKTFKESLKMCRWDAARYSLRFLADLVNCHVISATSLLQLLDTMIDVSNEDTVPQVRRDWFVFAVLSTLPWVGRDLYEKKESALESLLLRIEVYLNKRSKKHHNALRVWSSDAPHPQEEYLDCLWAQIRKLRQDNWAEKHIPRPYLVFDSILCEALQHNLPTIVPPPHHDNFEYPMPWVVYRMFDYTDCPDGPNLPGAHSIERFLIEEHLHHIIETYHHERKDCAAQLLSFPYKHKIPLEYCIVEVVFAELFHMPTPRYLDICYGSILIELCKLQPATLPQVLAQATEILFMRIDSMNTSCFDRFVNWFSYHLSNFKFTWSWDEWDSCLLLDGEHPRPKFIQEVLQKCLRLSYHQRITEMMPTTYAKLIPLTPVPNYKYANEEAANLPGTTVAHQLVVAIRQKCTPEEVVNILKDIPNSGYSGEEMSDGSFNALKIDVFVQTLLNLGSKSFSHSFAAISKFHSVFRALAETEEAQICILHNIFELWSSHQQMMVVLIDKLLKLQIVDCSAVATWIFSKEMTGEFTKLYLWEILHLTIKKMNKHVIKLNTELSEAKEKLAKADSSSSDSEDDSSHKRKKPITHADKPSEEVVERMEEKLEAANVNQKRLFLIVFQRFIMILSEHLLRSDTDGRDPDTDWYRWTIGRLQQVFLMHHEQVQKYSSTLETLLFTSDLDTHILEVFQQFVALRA

[7] = target: T1, Nonstop (Drosophila (endogenous in embryos)); experiment: co-IP; endogenous proteins from nuclear extract of Drosophila embryos; extract treated with DNase I and RNase before immunoprecipitation; affinity-purified rabbit antibodies, preimmune serum or IgG as control; western blot; remark: listed apart in the source
[8] = target: T5, ENY2 (Drosophila (endogenous in embryos)) (UniProt Q9VYX1); experiment: co-IP; low molecular weight Superose 6 fractions 28-31 of Drosophila embryonic nuclear extract (treated with DNase I and RNase); antibodies against Sgf11, Nonstop and ENY2 or preimmune serum; western blot
T5 sequence: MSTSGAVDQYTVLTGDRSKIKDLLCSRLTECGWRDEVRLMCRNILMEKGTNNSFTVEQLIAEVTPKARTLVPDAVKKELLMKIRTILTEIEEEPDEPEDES

Question: How did the binding [1] turn out when “Gcn5 subunit of SAGA (from UniProt O76216 1-813)” was run?
Answer: Its binding is “binds”.

Question: What about the binding [2] of the same molecule?
Answer: The binding was “binds”.

B1: ENY2 (protein, UniProt Q9VYX1 1-101)
chain: MSTSGAVDQYTVLTGDRSKIKDLLCSRLTECGWRDEVRLMCRNILMEKGTNNSFTVEQLIAEVTPKARTLVPDAVKKELLMKIRTILTEIEEEPDEPEDES
Question: B1 was tested. Which binding [3] did it give?
Answer: Its binding is “binds”.

Question: What about the binding [4] of the same molecule?
Answer: The binding was “binds”.

B2: HA-tagged Cbp80 (protein, UniProt Q7K4N3 1-800)
chain: MSRRRAHDTEDEGYDHRRNKRRRVSENQEIEDRLESLILRVGERSTSSVESNLEGLVSVLEADLGTFRLKILRILSDCAVRMPEKCTVYTTLVGLLNAKNYKFGGEFVDHMVKTFKESLKMCRWDAARYSLRFLADLVNCHVISATSLLQLLDTMIDVSNEDTVPQVRRDWFVFAVLSTLPWVGRDLYEKKESALESLLLRIEVYLNKRSKKHHNALRVWSSDAPHPQEEYLDCLWAQIRKLRQDNWAEKHIPRPYLVFDSILCEALQHNLPTIVPPPHHDNFEYPMPWVVYRMFDYTDCPDGPNLPGAHSIERFLIEEHLHHIIETYHHERKDCAAQLLSFPYKHKIPLEYCIVEVVFAELFHMPTPRYLDICYGSILIELCKLQPATLPQVLAQATEILFMRIDSMNTSCFDRFVNWFSYHLSNFKFTWSWDEWDSCLLLDGEHPRPKFIQEVLQKCLRLSYHQRITEMMPTTYAKLIPLTPVPNYKYANEEAANLPGTTVAHQLVVAIRQKCTPEEVVNILKDIPNSGYSGEEMSDGSFNALKIDVFVQTLLNLGSKSFSHSFAAISKFHSVFRALAETEEAQICILHNIFELWSSHQQMMVVLIDKLLKLQIVDCSAVATWIFSKEMTGEFTKLYLWEILHLTIKKMNKHVIKLNTELSEAKEKLAKADSSSSDSEDDSSHKRKKPITHADKPSEEVVERMEEKLEAANVNQKRLFLIVFQRFIMILSEHLLRSDTDGRDPDTDWYRWTIGRLQQVFLMHHEQVQKYSSTLETLLFTSDLDTHILEVFQQFVALRA
Question: B2 was tested. Which binding [5] did it give?
Answer: The binding was “binds”.

B3: FLAG-tagged Sgf11 (protein, UniProt Q9VVR6 1-196)
chain: MSAANMPTTTGAQGSGNQVPTTSTTIVNHFRELIKEPKNLDEAANYLYQSLLDDAVVGIFNETHHLRKSGNLAALDGVPEDSTYRMCEMPNLDIFGISTAKKPMDCTCPNCDRLVAAARFAPHLEKCMGMGRISSRIASRRLATKEGATSAHLHSSGNTGGTDDEDDVDWSSDKRRKKSNQNSRNNGSKKNNGKTF
Question: For B3, which binding [6] is on record?
Answer: Its binding is “binds”.

B4: Xmas-2 component of the mRNA export complex AMEX (protein, UniProt Q9U3V9-1 1-1370)
chain: MAEPRPGGYNYKTLLCRNIPELFLDKYVARSHFGRFGTLVNFVLRPRRMTCTVSYASEDEAARALLDGASFQGHLFDISYADNETAPAQKTEEWVDPDIQAELSALQSGWRNEYGSGKPIKKPQNGSSGSGGSSMLPAIPVGPATAPVSRDRTPAQLRDLENMMRRPAHTSEEKFSVLDARDKLLRLNRTQHKLSGATQGHCADMCPEKERVLREFQRQVAYYELQPGSDELICHERALKQYSRSSADQETPLPHELRNETALHMTMSYLMHEIMDISERQDPQSHMGDWFHFVWDRTRSIRKEITQQELCSLGAVKLVEQCARFHIHCAARLVDADPSVFDSKINAENLTKCLQTLKYMYHDLRIKGVPCPKEAEFRGYIVLLNLADANFLWDIGQLPAELQSCPEVRQAIQFYLALQDTNFVRFFQLLADKDTSYLSACILVNYFTRLRVLGLHRLIQAYRSPRKDEVSSLPLSYIAELLSFASEQEAADFVQHYGLQINEAGRVVLSRMHTVETEYKLPRQYELVEVKRVKSVGEVVSGEPLPPRDLYLNHRPHNSFDDYGMLKSIAWTAKDQLAGMQQEEMQPQMPSQPPAVSKHSDTLFKVPMQPDGTAAGFGVFAAAAVPPASSIDGFSFVLPKSRAQEFQEQAPATQQRRAQEEAKHQALQVAIAAAKKREAELMAIHEAKVAEAERVRQQKLRERQEQQRRQQQELEEQRQREQEKLQLEKERQLKLEQLFFVQQQEREAHKQTRTLELYQEIFQDTLAEICQSEFMSHSRACRSYESMLDSITRDLVERQMEQSIYELGVMRVCIRRWRKYRRTQQEKDTLFNQLPLSFGAENPEGVVNKRSMEDSLRLSRRYRLGEPCDYGKLLAGLEEHSWLKLDLWHVLDKCLPVAQPGARRFYKLLISLSGGQEGLQLNCDLDRGLLQQPQSPDARFVDGGYIRGFSQGIGLSVMKIRDDDHDWKATDLAEANGIICLIGLDDIRLLPDRLKPLLQASRCHDVAVIVQHPANTAFVQPDIPLQELCLRSFNIFRLRKSGNNRQRLMIALESAVKFLAKATERKRVGHLHQVETREYLLVNLGSELFRRLKYAAEHDTAIRSDTQLNPQRCVDLFNEAVHRLQLVAGEDLSDWPQFPEELRVFVQPLPIESSLNTNRLEHFEPGWHLPERRQRIVQLLERCKLPKMPVLPRSSSLAEAQCQWVLDYAQISQQEDCVEQIALQAIKILQYDTDDYLNFVEYLAGERMQYILRQERNPPQGIVYNTKTLKRRFLSAWYYEFREPQIYEPVPAEENAQMLEKQPSSQAEVQQLDFDEITSKAEAVLKRFHQRQDERHTLRELNRSHKSRKRRDASDHKHASKHKRKRSKSK
Question: B4 was tested. Which binding [7] did it give?
Answer: The binding was “no binding”.

Question: And the binding [4]?
Answer: The binding was “binds”.

B5: Sgf11 (protein, UniProt Q9VVR6 1-196)
chain: MSAANMPTTTGAQGSGNQVPTTSTTIVNHFRELIKEPKNLDEAANYLYQSLLDDAVVGIFNETHHLRKSGNLAALDGVPEDSTYRMCEMPNLDIFGISTAKKPMDCTCPNCDRLVAAARFAPHLEKCMGMGRISSRIASRRLATKEGATSAHLHSSGNTGGTDDEDDVDWSSDKRRKKSNQNSRNNGSKKNNGKTF
Question: For B5, which binding [8] is on record?
Answer: The binding was “binds”.

B6: HA-tagged Cbp20 (protein, UniProt Q9V3L6 1-154)
chain: MFASVELSSYRDQHFKGSRSEQERSLRDSCTLYVGNLSFYTTEEQIHELFSRCGDVRVIVMGLDKYKKTPCGFCFVEYYVRSEAEAAMRFVNGTRLDDRLIRVDWDAGFVEGRQYGRGKTGGQVRDEYRTDYDAGRGGYGKLLSQKIAPNTDNR
Question: How did the binding [5] turn out when B6 was run?
Answer: Its binding is “no binding”.
